Test results reported in PubChem BioAssay AID1768 (National Center for Advancing Translational Sciences (NCATS), 2009).
In all, about 270,000 compounds went through this assay and about 620 (0.23%) were called active. The shares of active, inactive and inconclusive entries below differ from those in the screen. Calls follow the shape of the dose curve; as a rule, active = well fitted inhibition curve with a large enough effect in the polarisation, with a control signal flat (not every such curve was filed as active); inconclusive = small, poorly fitted or top-dose-only effect, or effect the other way, or a change in a side signal; inactive = no such curve, though single readings can be large or run the other way; the % refers to the polarisation. A potency beside an inconclusive call is a rough fit, not a confirmed value. “Side channel” marks fits to a control or component signal instead of the main read-out.

Target: Menin (Homo sapiens) (UniProt O00255)
Test: qHTS Assay for Inhibitors Targeting the Menin-MLL Interaction in MLL Related Leukemias: Competition With Texas Red Labeled MLL-derived Mutant Peptide; as to FP activity change, negative = inhibition: % of control where 0% means no effect
Settings: fluorescence polarization; FP activity change, negative = inhibition: at 61.6 µM (top of the series)
Potency is read from the fitted curve at half-maximal effect; tags tell the direction and shape of the fitted curve or compound fluorescence and quenching.

UniProt O00255, sequence (O00255 whole entry, looked up): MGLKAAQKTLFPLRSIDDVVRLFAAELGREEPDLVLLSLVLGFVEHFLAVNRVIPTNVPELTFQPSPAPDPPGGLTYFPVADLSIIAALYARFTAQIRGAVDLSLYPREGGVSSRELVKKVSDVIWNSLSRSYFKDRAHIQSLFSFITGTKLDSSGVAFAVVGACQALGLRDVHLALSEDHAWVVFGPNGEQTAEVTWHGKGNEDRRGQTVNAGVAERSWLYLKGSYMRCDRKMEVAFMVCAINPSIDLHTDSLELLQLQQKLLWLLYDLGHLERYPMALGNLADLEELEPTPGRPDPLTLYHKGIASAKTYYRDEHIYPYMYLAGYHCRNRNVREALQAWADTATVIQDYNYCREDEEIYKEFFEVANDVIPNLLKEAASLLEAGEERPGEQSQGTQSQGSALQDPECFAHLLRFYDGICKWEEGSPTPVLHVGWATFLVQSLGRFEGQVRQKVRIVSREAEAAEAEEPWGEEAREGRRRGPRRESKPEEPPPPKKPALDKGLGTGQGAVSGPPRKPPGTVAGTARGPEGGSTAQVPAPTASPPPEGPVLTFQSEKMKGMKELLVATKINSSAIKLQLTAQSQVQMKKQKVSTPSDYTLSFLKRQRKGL

| Structure (SMILES) | Potency | FP activity change, negative = inhibition |
| --- | --- | --- |
| FC(F)(F)c1cc(NC(=S)NC23CC4CC(CC(C4)C2)C3)cc(C(F)(F)F)c1 | inconclusive: 22.4 µM [quencher, side channel, single point] |  |
| O=C(CC1S/C(=N/N=C/C=C/c2ccccc2)NC1=O)Nc1ccc(Cl)c(Cl)c1 (centres undefined) | inconclusive: 8.91 µM [quencher, side channel, full curve] |  |
| C=CCc1cccc2cc(C(=O)NC)c(=O)oc12 | inactive |  |
| COc1ccc2cc(C(=O)Nc3ccc(F)cc3)sc(=O)c2c1OC | inconclusive: 28.2 µM [inhibitor, single point] |  |
| O=C(O)c1ccc(Cl)c(NCc2ccncc2)c1 | inconclusive: 39.8 µM [inhibitor, single point] |  |
| Cn1cc(/C=C(\C#N)C(=O)Nc2ncc(Cc3cccc(Cl)c3)s2)c2ccccc21 | inconclusive: 10 µM [inhibitor, partial curve] |  |
| O=C(NCCCN1CCCCCC1)c1ccc(CS(=O)(=O)Cc2ccccc2F)o1 | inconclusive: 25.1 µM [inhibitor, single point] |  |
| COC(=O)NC(c1cccc(F)c1)[C@@]1(C(=O)OC)CCCC1=O (some centres undefined) |  | inactive: -2.31% [at 11.7 µM] |
| O=C(NC1=NCCS1)c1cccs1 | inconclusive: 39.8 µM [inhibitor, single point] |  |
| Cc1ccc(NC(CC(=O)c2ccccc2)c2ccc(F)cc2)cc1 (centres undefined) | inconclusive: 11.2 µM [quencher, side channel, partial curve] |  |
| COc1ccc(C(=O)Nc2ccc(-c3ccc(C)o3)cc2)cc1S(=O)(=O)N1CCOCC1 | inconclusive: 12.6 µM [quencher, side channel, partial curve] |  |
| COc1ccc(C2CC(=O)C3=C(C2)NC(C)=C(C#N)C3c2ccc(N(C)C)cc2)cc1 (centres undefined) | inconclusive: 5.01 µM [quencher, side channel, full curve, poor fit] |  |
| O=C(CCc1ccccc1)NCCSc1ccccc1 | inconclusive: 10 µM [inhibitor, partial curve] |  |
| Cn1cc([N+](=O)[O-])c(C(=O)Nc2cc(Oc3ccccc3)cc([N+](=O)[O-])c2)n1 | inconclusive: 35.5 µM [quencher, side channel, partial curve] |  |
| O=C(Nc1ccccc1C(=O)NCc1ccccc1)c1ccccc1 | inconclusive: 31.6 µM [quencher, side channel, single point] |  |
| CCOC(=O)C1(CC2CC2)CCN(C(=O)c2cc(OC)nc3ccccc23)CC1 | inconclusive: 7.08 µM [fluorescent, side channel, partial curve, poor fit] |  |
| Cc1ccccc1CS(=O)(=O)c1nnc([C@H](CC(C)C)NC(=O)OC(C)(C)C)o1 | inconclusive: 12.6 µM [inhibitor, partial curve] |  |
| Cc1ccc(-c2sc(-c3ccccc3)nc2CC(=O)Nc2ccccc2F)cc1 | inconclusive: 14.1 µM [inhibitor, single point] |  |
| CC(C)OC(=O)CSc1nc(N)c(C#N)c(-c2cccs2)c1C#N | inconclusive: 39.8 µM [inhibitor, single point] |  |
| O=C1OC(c2ccccc2)=C/C1=C/c1cccs1 | inconclusive: 28.2 µM [quencher, side channel, partial curve] |  |

| Structure (SMILES) | Potency | FP activity change, negative = inhibition |
| --- | --- | --- |
| Cc1[nH]c2ccccc2c1C(=O)CSC(=S)N(C)C1CCCCC1 | inconclusive: 35.5 µM [inhibitor, single point] |  |
| O=C(Nc1nc2ccc(S(=O)(=O)N3CCCC3)cc2s1)c1ccccn1 | inconclusive: 6.31 µM [fluorescent, side channel, single point] |  |
| Cc1cc(C)n2nc(C(=O)N3CCCC(N4CCN(c5ccccc5C)CC4)C3)cc2n1 (centres undefined) | inconclusive: 2.82 µM [inhibitor, full curve] |  |
| COc1cc(O)c2c(c1)OC(c1ccc(O)cc1)CC2=O (centres undefined) | inactive |  |
| CCCn1c2ccccc2c2nnc(SCc3[nH]c(=O)[nH]c3C(=O)CCCCC(=O)OCC)nc21 | inactive |  |
| Brc1cc2[nH]cnc2c2ccccc12 | inconclusive: 22.4 µM [quencher, side channel, partial curve] |  |
| CCOC(=O)COc1ccc2c(C)c(CCN(CC)CC)c(=O)oc2c1Cl | inactive |  |
| CCC(C)(C)C(=O)Nc1cc([N+](=O)[O-])ccc1Cl | inactive |  |
| COCCCNC(=O)CN(CCc1ccccc1)S(=O)(=O)c1ccc(C)cc1 | inconclusive: 28.2 µM [fluorescent, side channel, single point] |  |
| O=C(Nc1cccc(S(=O)(=O)C(F)F)c1)c1ccc(S(=O)(=O)N2CCCC2)cc1 | inconclusive: 31.6 µM [quencher, side channel, single point] |  |
| O=C(O)c1cccc(NC(=S)NC(=O)c2ccc(-c3ccccc3)cc2)c1 | inconclusive: 14.1 µM [quencher, side channel, partial curve] |  |
| O=C(NC(=S)Nc1ccccc1N1CCCC1)c1ccccc1[N+](=O)[O-] | inconclusive: 14.1 µM [quencher, side channel, partial curve] |  |
| O=C(O)c1ccc(CN(c2ccccn2)S(=O)(=O)c2ccccc2)cc1 | inactive |  |
| Cc1cc(NC(=O)CCC(=O)N(c2cccnc2)C(C(=O)NC2CCCC2)c2ccccc2F)no1 (centres undefined) | inactive |  |
| CC(=O)N(Cc1ccc(F)cc1)c1cccc(C)c1C | inconclusive: 11.2 µM [fluorescent, side channel, partial curve] |  |
| O=[N+]([O-])c1ccc2nc(-c3ccccc3)oc2c1 | inconclusive: 3.55 µM [inhibitor, full curve] |  |
| CC(=O)c1ccc(NC(=S)NC(C)c2ccc(Cl)cc2Cl)cc1 (centres undefined) | inconclusive: 14.1 µM [quencher, side channel, partial curve] |  |
| CCOc1ccc(NC(=S)N2C3CCCC2CC(NC(=O)C2CC2)C3)cc1 (centres undefined) | inconclusive: 2.51 µM [inhibitor, full curve] |  |
| Cc1ccc(C(=O)NC(=S)NNC(=O)COc2ccccc2C)cc1 | inconclusive: 35.5 µM [quencher, side channel, single point] |  |
